About 360 (0.19%) of roughly 190,000 compounds were called active. Inconclusive results, whose numbers are uncertain, are shown with a selection of clear calls.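 How the source made its calls: active means GTP binding activity at least 20 points away from 100%, either lowered or raised; inconclusive means signal likely due to the compound's own green fluorescence; inactive means the rest.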
target: Ras-related protein Rab-2A (Canis lupus familiaris) (UniProt P61105); test: Rab2 wt fluorescent GTP binding changes, either direction – biochemical, dog, bead-based flow cytometry, multiplex, primary screen (AID 760); details: GST-Rab2 wt beads, Bodipy-GTP binding, at 10 µM;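 further: 0% = beads with excess unlabeled GTP and 100% = no-compound control corrected for plate trend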

| SMILES | GTP binding activity |
| --- | --- |
| NC(=S)N=Nc1c(O)[nH]c2ccc(F)cc12 | active: 74% |
| Cc1nc(-c2cnn(-c3ccccc3)c2)c2cc(C)oc2n1 | active: 75% |
| C=CCn1c(-c2csc(-c3ccc(Cl)cc3)n2)n[nH]c1=S | inactive: 112% |
| O=C(NCc1ccco1)/C(=C\C=C\c1ccccc1)NC(=O)c1ccccc1Br | inactive: 97% |
| Cn1c(Sc2ccc(Br)cc2)c(C=O)c2ccccc21 | inconclusive: 93% |
| COc1ccc(-c2cc(C(F)(F)F)n3nc(C(=O)NCCCN4CCOCC4)cc3n2)cc1 | inconclusive: 95% |
| CC(=O)Nc1ccc(Nc2ccc3nonc3c2[N+](=O)[O-])cc1 | inactive: 93% |
| O=C(/C=C/c1cccc([N+](=O)[O-])c1)OCC(=O)c1ccccc1 | inactive: 94% |
| COc1ccc(/C=C(/C#N)C(=O)Nc2cccc([N+](=O)[O-])c2)cc1C(=O)O | inconclusive: 91% |
| CC1=C(C(=O)OC(C)C)C(c2cccs2)n2ncnc2N1 (centres undefined) | inconclusive: 100% |
| O=C(C1CCC(CNc2nc(=S)[nH]c3ccccc23)CC1)N1CCN(c2ccc(F)cc2)CC1 (centres undefined) | inconclusive: 83% |
| O=C(CC1SC(=Nc2ccccc2F)N(CCN2CCOCC2)C1=O)Nc1ccc(F)cc1F (centres undefined) | inactive: 97% |
| COc1ccccc1NS(=O)(=O)c1cccc(C(=O)NCc2ccco2)c1 | inactive: 99% |
| CCCn1cnc2cc(NCc3cccc(OC)c3O)ccc21 | inconclusive: 94% |
| c1ccc(CSc2ccc(-c3cccs3)nn2)nc1 | inconclusive: 95% |
| Cc1ccc(S(=O)(=O)Cc2ccc(C(=O)N3CCN(c4cc(C)ccc4C)CC3)o2)cc1 | inactive: 80% |
| COC(=O)c1ccc(NC(=S)NNC(=O)c2ccccc2)cc1 | inconclusive: 90% |
| Cc1cccn2c(CN(C)CC3Cc4ccccc4O3)c(C(=O)N3CCCCC3)nc12 (centres undefined) | inactive: 97% |
| Cn1c(=O)n(C)c2cc(C(=O)c3ccccc3)ccc21 | inconclusive: 104% |
| Cc1cc(=O)[nH]c(N/N=C/c2ccc(C)o2)n1 | inconclusive: 95% |

| SMILES | GTP binding activity |
| --- | --- |
| CCCSc1nc2c(cnn2-c2ccc(Cl)cc2)c(=O)[nH]1 | inactive: 92% |
| CC(=O)NCCNC(=O)C1CCCCN1S(=O)(=O)c1ccccc1 (centres undefined) | inactive: 98% |
| Nc1nn(-c2ccccc2)nc1C(=O)OCc1ccccc1F | inconclusive: 87% |
| COc1ccc(/C=C/C(=O)Oc2cccc(/C=N/NC(=O)COc3c(C)cccc3C)c2)cc1 | inactive: 94% |
| CCn1cc(Br)c(C(=O)Nc2ccccc2C(=O)OC)n1 | inconclusive: 96% |
| Cc1ccc(NC(=O)c2cccc(S(C)(=O)=O)c2)cc1 | inconclusive: 91% |
| COc1ccc(OC)c(-c2cc(C(=O)N3CCN(c4ncccn4)CC3)c3ccccc3n2)c1 | inconclusive: 94% |
| CCOC(=O)c1sc2ncn(/N=C/c3ccc(O)c(OC)c3)c(=O)c2c1C | inactive: 95% |
| COc1cccc(-c2cc(C(F)(F)F)c(C#N)c(=O)[nH]2)c1 | active: 78% |
| Cc1ccc(NC(=O)CN(C)CC(=O)Nc2cccc(F)c2)cc1S(=O)(=O)N1CCCCCC1 | inconclusive: 119% |
| CCOC(=O)c1ccc(Nc2nc(C(=O)OCC)nc3ccccc23)cc1 | active: 73% |
| C=CCn1c(CCCNC(=O)c2ccccc2OC)nc2ccccc21 | inactive: 100% |
| O=C(NC1CCCC1)c1cc(Cl)ccc1[N+](=O)[O-] | inconclusive: 100% |
| N#CC1=C(N)OC2=C(C(=O)CCC2)C1c1ccsc1 (centres undefined) | inconclusive: 104% |
| CCOC(=O)C1=C(CC)Nc2ccccc2N=C1NC(=O)c1ccc(OC)c(S(=O)(=O)N2CCCCC2C)c1 (centres undefined) | inconclusive: 92% |
| COCCn1c(Cc2ccccc2)nnc1SCC(=O)Nc1cc(C)on1 | inactive: 103% |
| COc1cc(S(=O)(=O)N2CCC(C(N)=O)CC2)c(C)cc1C | inactive: 104% |
| CC1(C)CC(=O)C(C=NCCN2CCOCC2)=C(O)C1 | inconclusive: 108% |
| COc1ccccc1CNC(=O)COC(=O)c1ccc(S(=O)(=O)N2CCCC2)cc1 | inconclusive: 105% |
| O=C(Nc1ccc2c(c1)C(=O)NC2=O)c1ccc(S(=O)(=O)N2CCCC2)cc1 | inconclusive: 90% |

| SMILES | GTP binding activity |
| --- | --- |
| O=C(NCc1ccncc1)C(=O)NCc1ccncc1 | inconclusive: 99% |
| Cc1cccc(NS(=O)(=O)c2cc(C(=O)N3CCc4ccccc4C3)ccc2Cl)c1C | inactive: 100% |
| O=C(Nc1ccccc1C(=O)NC(Cc1ccccc1)C(=O)NC1CCCCCC1)c1ccccc1 (centres undefined) | inconclusive: 100% |
| Cc1nc(N)sc1C(=O)N/N=C/c1ccccc1[N+](=O)[O-] | inconclusive: 91% |
| Cn1c(NC(=O)c2ccccc2)c(-c2cccs2)c(=O)c2ccccc21 | inactive: 100% |
| CCO[C@@H]1OC(C(=O)NCc2nc3ccccc3[nH]2)=C[C@H](c2ccc(C(F)(F)F)cc2)[C@H]1CCCO | inactive: 98% |
| O=C(Nc1nnc(-c2ccco2)o1)c1ccc([N+](=O)[O-])s1 | inactive: 95% |
| Cc1ccc(NC(=O)c2ccc(NCc3ccco3)c([N+](=O)[O-])c2)cc1Cl | inactive: 103% |
| CCN=C1SC(CC(=O)NCCc2ccc(OC)cc2)C(=O)N1CC (centres undefined) | inconclusive: 103% |
| Cc1ccc(NC(=O)c2cccc3c2C(=O)N(C2CCCCC2)C3)cc1 | inconclusive: 84% |
| CN(C)c1ccc(N2CC(C)(C)C2=O)cc1 | inactive: 94% |
| CNC(=O)COC(=O)c1cc(NC(=O)c2ccco2)c(OC)c(OC)c1 | inactive: 80% |
| CCOc1ccc(C2N(c3ccc(F)cc3)C(=O)C3CCCN32)cc1OC (centres undefined) | inconclusive: 101% |
| CCCCCOC(=O)NC1CCS(=O)(=O)C1 (centres undefined) | inactive: 101% |
| COc1ccc(NC(=S)NC(NC(=O)c2ccc(Cl)cc2Cl)C(Cl)(Cl)Cl)c([N+](=O)[O-])c1 (centres undefined) | inconclusive: 93% |
| O=C(CCCc1nc2ccccc2s1)NNC(=O)CCN1CCN(Cc2ccccc2)CC1 | inactive: 99% |
| COc1ccc2[nH]c(C(=O)O)c(CCNC(C)=O)c2c1 | inconclusive: 92% |
| Cn1nnnc1SCC(=O)Nc1nc2ccccc2s1 | inactive: 97% |
| O=C(CSc1nnc(-c2ccncc2)n1-c1ccc(Cl)cc1)Nc1ccc(C(=O)O)cc1 | inconclusive: 87% |

Reference: PubChem BioAssay AID760 (NMMLSC, 2007)
